Measured values as given in PubChem BioAssay AID1259246 (Broad Institute, 2017).
Results filed as inconclusive are left out. Some entries of the source have several records that differ or are many. This list holds those alone. The source may hold further records. The values listed for one entry repeat one measurement across runs, samples, wells, individuals or studies. Brackets tell where a record comes from. A, B and so on number the origins entry by entry.

System: Clostridioides difficile clinical isolate growth, OD600, 24 h
Assay: antibacterial activity against Clostridioides difficile – 10-point retest, dose response (AID 1259246)

| SMILES | IC50 |
| --- | --- |
| COc1ccc(CN(C)C[C@H]2Oc3c(NC(=O)Nc4ccc(C(F)(F)F)cc4)cccc3C(=O)N([C@@H](C)CO)C[C@H]2C)cc1 | 7.58 µM [sample A] and 238 nM [sample B] and 1.16 µM [sample C] |
| C[C@@H]1CN([C@@H](C)CO)C(=O)c2cccc(NC(=O)Nc3ccc(C(F)(F)F)cc3)c2O[C@@H]1CN(C)CC1CCCCC1 | 6.18 µM [sample A] and 612 nM [sample B] and 6.08 µM [sample C] |
